PubChem BioAssay AID686979 (National Center for Advancing Translational Sciences (NCATS), 2013)
In all, about 420,000 compounds went through this assay and about 50,000 (12%) were called active. The inconclusive results got no clear call from the source; some entries with a clear call stand among them for comparison. The call rests on the fitted dose curve; in most records, active means well fitted inhibition curve with a large enough effect; inconclusive means small, poorly fitted or top-dose-only effect; inactive means flat fitted curve, though single readings scatter. No potency is given beside an inconclusive call; the fits are too rough.

Assay: qHTS for Inhibitors of human tyrosyl-DNA phosphodiesterase 1 (TDP1): qHTS in cells in presence of CPT; further: nearly all actives have a fitted effect of over 55% in size
Conditions: chicken DT40 Tdp1-/-;hTDP1 cells + 20 nM CPT, ATP luminescence, 48 h; activity change, negative = growth inhibition: at 46.2 µM (top of the series) unless noted
In short: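 Cell growth measured by CellTiter-Glo luminescence after a minimum 48 h, 37 C compound exposure with 20 nM CPT in Tdp1-knockout DT40 cells stably expressing hTDP1, seeded 400/well; qHTS titration format.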
On the % scale 0 is the no-effect control and ±100 the full control effect; potency means the concentration at half of the fitted maximal effect; tags describe the fitted curve by direction and shape.

SMILES	Potency	activity change, negative = growth inhibition
COc1ccc(Br)cc1CNC(=O)CCCn1c(=O)c2cccn2c2ccccc21	inconclusive [inhibitor, single point]	
CCOC(=O)Cc1csc(NC(=O)c2csc3c2CCCC3)n1	inactive	
CCC1CN(C(=O)N2CCC(C(=O)NCCc3ccc(OC)cc3OC)CC2)c2ccccc2O1 (centres undefined)	active: 25.9 µM	
CNc1nc(N)nc(-c2cc(Cl)ccc2OC)n1	inactive	
Cc1ccc(NCC(=O)N/N=C/c2ccc(-c3cccc(C(F)(F)F)c3)o2)cc1	inconclusive [inhibitor, single point]	
CCn1c(SCc2ccccc2)nc2cc(S(N)(=O)=O)ccc21	inactive	
CC(C)(C)OC(=O)N1CCC(c2c(C(=O)NCc3ccc4c(c3)OCO4)cnn2-c2ccc(F)cc2F)CC1	inconclusive [inhibitor, single point]	
COCCNC(=O)CN1C(=O)NC2(CCCCCC2)C1=O	inactive	
CCN(C(=O)Cc1c(C(=O)O)n(CC)c2ccccc12)c1cccc(C(F)(F)F)c1	inactive	
CN(C)c1ccc(C(CNS(=O)(=O)c2ccc(Cl)cc2)N2CCCC2)cc1 (centres undefined)	inconclusive [inhibitor, single point]	
COc1ccc(CCNC(=O)NCc2noc3ccccc23)c(OC)c1	inconclusive [inhibitor, single point]	
CCCCCc1ccc(OCCC[n+]2ccccc2)c(CCCCC)c1	active: 0.651 µM	
Cc1cc2c(ncn2Cc2ccccc2)c([N+](=O)[O-])c1C	inconclusive [inhibitor, single point]	
COCCNC(=O)C1CCCN(C(=O)c2ccc3c(c2)C(C)(C)CCC3(C)C)CC1 (centres undefined)	active: 13 µM	
CC(=O)c1ccc(N2CCN(C(=O)Cn3cnc(S(=O)(=O)N4CCCCC4)c3)CC2)cc1	inconclusive [inhibitor, single point]	
O=C(Oc1ccccc1)N1CCC2(CC1)CCN(c1ccncc1)CC2	active: 14.6 µM	
O=S(=O)(c1ccc(F)cc1F)N1CCCN(c2ccc(C(F)(F)F)cn2)CC1	inconclusive [inhibitor, partial curve, poor fit]	
COc1cccc(-c2nnc3n(Cc4ccc(F)cc4)c(=O)c4ccccc4n23)c1	inconclusive [inhibitor, single point]	
C[n+]1cccc(C2C(C#N)=C(N)Oc3c2ccc2ccccc32)c1 (centres undefined)	inconclusive [inhibitor, single point]	
CC1CC(C)CN(C(=O)COC(=O)c2cncc(Br)c2)C1 (centres undefined)	inactive	
CSCCC(NC(=O)COc1ccccc1)C(=O)OCCOc1ccc(C)cc1 (centres undefined)	inconclusive [inhibitor, single point]	
Cc1nn(-c2ccc3nncn3n2)c(C)c1CCC(=O)Nc1ccc(OC(F)(F)F)cc1	inconclusive [inhibitor, single point]	
CN(CCc1ccccc1)C(=O)CCc1nnc(Cc2ccc3c(c2)OCO3)o1	inactive	
Cc1ccc(-c2noc(CN(C3CCCCC3)S(=O)(=O)c3ccc(C)cc3)n2)cc1	active: 13 µM	
COc1cc(NC(=O)c2noc3c2CCc2ccccc2-3)cc(OC)c1OC	active: 7.31 µM	

SMILES	Potency	activity change, negative = growth inhibition
Cc1ccc2[nH]cc(C(=O)NCc3cccs3)c(=O)c2c1	active: 23.1 µM	
CCn1c(SCc2ccc(C(=O)Nc3cc(C)cc(C)c3)cc2)nnc1-c1ccncc1	inconclusive [inhibitor, single point]	
c1ccc(-n2cnc3cc(NCc4ccco4)ccc32)cc1	inconclusive [inhibitor, single point]	
Cc1cccc(-c2nc3c(C#N)c[nH]n3c2NC2CCCCC2)c1	inconclusive [inhibitor, single point]	
COc1ccccc1CNC(=O)CSC1=NCCS1	inconclusive [inhibitor, partial curve]	
COc1cc(C(=O)NCC(c2cccnc2)N2CCN(c3ccc(F)cc3)CC2)cc(OC)c1OC (centres undefined)	inconclusive [inhibitor, single point]	
Cc1ccc(-n2cccn2)c(CN2CCCC(C(=O)c3sccc3C)C2)c1 (centres undefined)	active: 23.1 µM	
O=C(c1ccccc1)c1cnc(Nc2ccc(Cl)c(Cl)c2)s1	inconclusive [inhibitor, single point]	
O=C(CN1CCN(c2ncccn2)CC1)NCc1ccccc1	inactive	
O=C(CSc1n[nH]c(-c2ccccc2)n1)NCc1cccc(C(=O)O)c1	inactive	
COc1ccc(CN(C)CC(=O)Nc2sc3c(c2C#N)CCC3)cc1OC	inconclusive [inhibitor, single point]	
COc1ccccc1CNC(=O)CC(NS(=O)(=O)c1ccc(C)cc1)c1ccco1 (centres undefined)	inconclusive [inhibitor, partial curve]	
O=C1CC(=O)NC(SCC(=O)Nc2ccccc2[N+](=O)[O-])=N1	inactive	
COc1cc(/C=C2\C(=O)ON=C2c2ccccc2)cc(OC)c1OC	inconclusive [inhibitor, partial curve]	
Cc1ccccc1CNC(=O)c1ccc(-n2c(C)cc3c2CCCC3)cc1	inconclusive [inhibitor, single point]	
COc1ccccc1CNC(=O)C1CCN(Cc2nc(-c3ccc(OC)c(OC)c3)oc2C)CC1	inactive	
COc1ccc2c(COC(=O)[C@@H]3CCCN3S(=O)(=O)c3ccc(Cl)cc3)cc(=O)oc2c1	inconclusive [inhibitor, single point]	
Cc1ccc(C)c(Cn2nc3c4ccccc4n(Cc4ccccc4)cc-3c2=O)c1	inconclusive [inhibitor, full curve, poor fit]	
CCN(CC)CCC#CC(O)(c1ccccc1)C1CCCCC1 (centres undefined)	inconclusive [inhibitor, partial curve]	
COc1cc(C2c3cc4c(cc3C(OC3OC5COC(C)O[C@@H]5C(O)C3O)C3COC(=O)C23)OCO4)cc(OC)c1O (some centres undefined)	active: 0.184 µM	
C#C[C@]1(O)CC[C@H]2[C@@H]3CCc4cc(OC)ccc4[C@H]3CC[C@@]21C	active: 0.237 µM	
Cc1ccc(C2(C)NC(=O)N(CC(=O)Nc3ccc(Cl)c(S(=O)(=O)N4CCCCC4)c3)C2=O)cc1 (centres undefined)	inconclusive [inhibitor, single point]	
COc1ccc(CN2CCNC(=O)C2CC(=O)NCC2CCOCC2)c(C)c1C (centres undefined)	inactive	
O=C1CCC(=O)N1CC1CC2CCC1C2 (centres undefined)	inactive	
CCn1cc(C(=O)NCC2COc3ccccc3O2)c2cc(OC)c(OC)cc2c1=O (centres undefined)	inconclusive [inhibitor, single point]	

SMILES	Potency	activity change, negative = growth inhibition
O=C(C(=O)N1CCN(C(=O)OCc2ccccc2)CC1)c1cccnc1	inactive	
COc1ccc(CNc2nc3c(c(=O)n(Cc4ccc(Cl)cc4)c(=O)n3C)n2C)cc1	active: 18.4 µM	
C=CCC[C@@H](Cc1ccc(F)cc1)C(=O)OC[C@H](C)NC(=O)[C@H](CC=C)CC(=O)N(CCO)Cc1ccccc1	active: 18.4 µM	
CCOc1ccc(C(=S)NC2CCCCC2)cc1OC	inconclusive [inhibitor, single point]	
CCC1(CC)C(=O)C2=C3C1[C@H](C(=O)OC)C=C(C(=O)OC)C[C@H]3[C@H]1C(=O)N(CC(=O)OC)C(=O)[C@H]1[C@H]2C (some centres undefined)	inactive	
Oc1ccc(N2CCN(Cc3c(-c4ccccc4)nc4ccccn34)CC2)cc1	inconclusive [inhibitor, single point]	
CC(C)CCNC(=O)C1CCN(c2nc3ccccc3o2)CC1		inconclusive: -31.6% [inhibitor]
Nc1[nH]c(=S)nc2nnsc12	active: 11.2 µM	
Cc1ccc(-c2csc(NC(=O)c3ccc(F)cc3)c2C(=O)O)cc1	inconclusive [inhibitor, single point]	
O=[N+]([O-])c1ccccc1CN1CCN(Cc2ccc3ccccc3c2)CC1	inactive	
COC(=O)c1ccc(NC(=O)c2ccccc2-c2ccccc2C(=O)O)cc1	inactive	
CCOc1ccc(NC(=S)NNC(=O)CC(C)O)cc1 (centres undefined)	inactive	
Cn1c(-c2ccc(F)cc2)cnc1SCC(=O)N1CCCCC1	inactive	
COc1ccc(C(=O)Nc2ccc3c(c2)OCO3)cc1OC	inconclusive [inhibitor, single point]	
CN(C(=O)c1ccc(S(=O)(=O)N2CCCCC2)cc1)C1CCS(=O)(=O)C1 (centres undefined)	inactive	
N#CCCN(Cc1ccccc1)C(C(=O)NC1CCCCC1)c1cc2ccccc2o1 (centres undefined)	active: 20.6 µM	
Cn1cnc([N+](=O)[O-])c1S(=O)(=O)Nc1ccccc1	active: 16.4 µM	
Cc1ccc(S(=O)(=O)NCCc2cc3ccc(C)c(C)c3[nH]c2=O)cc1	inconclusive [inhibitor, single point]	
CC(C)C1C(=O)N(Cc2cn(CCC3OCCO3)nn2)CCS(=O)(=O)N1Cc1ccc(-c2ccc(Cl)cc2)cc1 (centres undefined)	active: 3.26 µM	
CN(C)CCCN(C(=O)/C=C/c1cccs1)c1nc2c(F)cccc2s1	active: 20.6 µM	
Cc1c(NC(=O)C(C)Sc2nc3ccccc3c(=O)n2CCO)c(=O)n(-c2ccccc2)n1C (centres undefined)	inactive	
COCCNC(=O)c1ccc(Cn2c(SCC(=O)NC(C)C)nc3ccccc3c2=O)cc1	inconclusive [inhibitor, single point]	
Fc1ccccc1OCCn1c(=S)[nH]c2ccccc21	inactive	
CC(C)(C)c1ccc(Oc2ncccc2NC(=O)c2cccs2)cc1	inconclusive [inhibitor, single point]	
